From PubChem BioAssay AID894 (National Center for Advancing Translational Sciences (NCATS), 2007)
In all, about 150,000 compounds went through this assay and about 6,500 (4.3%) were called active. The inconclusive results got no clear call from the source; some entries with a clear call stand among them for comparison. Calls follow the shape of the dose curve; as a rule, active = well fitted inhibition curve with a large enough effect (not every such curve was filed as active); inconclusive = small, poorly fitted or top-dose-only effect, or another doubt; inactive = no such curve, though single readings can be large or run the other way. No potency is given beside an inconclusive call; the fits are too rough.
% is scaled to controls: 0 for no effect and ±100 for the full control effect; potency is read from the fitted curve at half-maximal effect; tags tell the direction and shape of the fitted curve.

The molecules below were run against 15-hydroxyprostaglandin dehydrogenase [NAD(+)] (Homo sapiens) (UniProt P15428) (assay: qHTS Assay for Inhibitors of HPGD (15-Hydroxyprostaglandin Dehydrogenase)). Settings: purified HPGD, NADH fluorescence kinetic, PGE2 substrate; activity change, negative = inhibition: stronger effect = lower value.
Chain of UniProt P15428 (P15428 whole entry, looked up): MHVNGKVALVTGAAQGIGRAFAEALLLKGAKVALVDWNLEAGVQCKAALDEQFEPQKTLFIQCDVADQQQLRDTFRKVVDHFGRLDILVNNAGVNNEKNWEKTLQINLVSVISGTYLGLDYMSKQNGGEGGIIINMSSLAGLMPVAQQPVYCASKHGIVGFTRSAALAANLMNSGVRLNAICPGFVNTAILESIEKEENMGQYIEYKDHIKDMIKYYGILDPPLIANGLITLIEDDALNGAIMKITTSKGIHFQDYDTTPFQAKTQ
Procedure, shortened: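 20 nM HPGD preincubated 15 min at room temperature with compound in 50 mM Tris-HCl pH 8, 0.01% Tween 20. Started with 1 mM NAD+ and 30 uM prostaglandin E2; NADH fluorescence (360/450 nm) read 5 times over 30-s intervals, last minus first.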
For `Cn1cc([N+](=O)[O-])c(C(=O)Nc2ccc3nc(-c4ccccc4)[nH]c3c2)n1`, the Potency was inconclusive [inhibitor, partial curve, poor fit]. In the case of `COc1ccccc1C(=O)N/C(=C\c1ccc(Br)cc1)C(=O)NCC(=O)O`, the activity change, negative = inhibition is reported as inactive: -0.994%. For `COc1ccc2cc(/C(C)=N/NC(=O)c3cc(-c4cccnc4)nc4ccccc34)ccc2c1`, the Potency was inconclusive [inhibitor, partial curve]. In the case of `Cc1ccc(/C=C/C2=NN(Cc3ccccc3)C(=O)CC2)cc1`, the Potency is reported as inconclusive [inhibitor, single point]. For `COc1cc(C(=O)Nc2nc(-c3cccs3)cs2)cc(OC)c1OC`, the Potency was inconclusive [inhibitor, single point]. In the case of `O=C(Nc1cccc(Cl)c1)Nc1ccccc1C(=O)NCc1ccco1`, the Potency is reported as inconclusive [inhibitor, partial curve]. `CC(/C=C/C(=O)c1ccc(C)cc1)=C\c1ccccc1` was tested, and the activity change, negative = inhibition was inactive: -15.4%. In the case of `Cc1ccc(C2C(C#N)=C(N)Oc3c2sc2ccccc32)o1` (stereo unspecified), the Potency is reported as inconclusive [inhibitor, partial curve]. With `CC1CCCCN1CCCNC(=O)c1ccc(Cc2nc3ccccc3[nH]2)cc1` (stereo unspecified) the activity change, negative = inhibition was inactive: -1.65%. `Cc1c(C(=O)O)oc2ccc(S(=O)(=O)NCc3ccc4c(c3)OCO4)cc12` was tested, and the Potency was inconclusive [inhibitor, partial curve]. For `CC1=C(CC(=O)c2ccc(Cl)cc2)C(=O)c2ccccc2C1=O`, the activity change, negative = inhibition was inactive: -26.5%. For `Cn1c(=O)[nH]c(=O)c2c1nc(SCCN1CCCCC1)n2CCCc1ccccc1`, the Potency was active: 28.2 µM. For `Cn1c(N)c(C(=O)COC(=O)c2ccc(Cl)c(S(=O)(=O)N3CCCCC3)c2)c(=O)n(C)c1=O`, the Potency was active: 15.8 µM. In the case of `FC(F)(F)c1ccc(N2CCN(c3ncnc4c3nnn4Cc3ccccc3Cl)CC2)cc1`, the Potency is reported as inconclusive [inhibitor, partial curve]. `O=C(O)c1ccc(CN2C(=O)CSC2=S)cc1` was tested, and the activity change, negative = inhibition was inactive: -20.7%. `COc1ccc(S(=O)(=O)n2cnc3cc(C)c(C)cc32)cc1` was tested, and the activity change, negative = inhibition was inactive: -20.4%. `COc1ccc2cnnc(SCC(=O)Nc3ccccc3)c2c1OC` was tested, and the Potency was active: 25.1 µM. In the case of `COc1ccc(C2CC(c3cccs3)=NN2C(=O)c2ccc(Br)o2)cc1` (stereo unspecified), the Potency is reported as inconclusive [inhibitor, partial curve]. With `Cc1cc(-c2nn(-c3ccccc3)cc2/C=C2\SC(N)=NC2=O)ccc1OC(C)C` the Potency was inconclusive [inhibitor, partial curve]. With `CCOC(=O)N1CCN(C(=O)c2noc(C(C)C)c2[N+](=O)[O-])CC1` the activity change, negative = inhibition was inactive: 4.24%. For `CC1CCCN(C(=O)CSc2nnc(-c3ccc(S(=O)(=O)N4CCOCC4)cc3)n2C)C1` (stereo unspecified), the Potency was inconclusive [inhibitor, partial curve]. For `O=C(NC1CC1)C1CCN(c2ncnc3c2sc2cccc(F)c23)CC1`, the Potency was active: 15.8 µM. `CCCc1nnc(SCc2ccc(OCC)cc2)n1N` was tested, and the Potency was active: 28.2 µM. `Cc1ccc(-c2cc(C(=O)NCc3cnn(C)c3C)c3cc(Br)ccc3n2)cc1` was tested, and the activity change, negative = inhibition was inactive: -2.62%. `COc1ccc(-c2nc(-c3cccc(C)c3)[nH]c(=O)c2C#N)cc1` was tested, and the Potency was inconclusive [inhibitor, partial curve]. `c1ccc(CCn2nnnc2CN2CCCc3ccccc32)cc1` was tested, and the activity change, negative = inhibition was inactive: -5.07%. `CCOC(=O)C1=C(CSc2nc(CC)c(C)cc2C#N)OC(N)=C(C#N)C1c1ccc(OC)cc1` (stereo unspecified) was tested, and the Potency was inconclusive [inhibitor, partial curve]. For `O=c1c(-c2ccccc2)nc2cnc(N3CCNCC3)nc2n1C1CC1`, the Potency was inconclusive [inhibitor, partial curve]. `CCOC(=O)N/N=C/c1ccc(N(CC)CC)cc1O` was tested, and the activity change, negative = inhibition was inactive: -14.1%. With `O=C(O)CCCCCn1c(SCC(=O)c2ccc(O)c(O)c2)nc2ccsc2c1=O` the Potency was inconclusive [inhibitor, single point]. In the case of `CCC(CO)NC(=O)c1ccc(-c2nn(C)c(=O)c3ccccc23)cc1` (stereo unspecified), the Potency is reported as active: 31.6 µM. `CN(C)S(=O)(=O)Nc1ccc2c(c1)Cc1ccccc1-2` was tested, and the Potency was active: 14.1 µM. `O=C(CSc1nnc(-c2c[nH]c3ccccc23)o1)N1CCCCC1` was tested, and the Potency was active: 28.2 µM. In the case of `Nc1ccccc1Nc1cc(-c2cccc(Cl)c2)nn1-c1ccccc1`, the activity change, negative = inhibition is reported as inactive: -14.4%. With `CC1=C(C)C(=O)C(CCCCC#CCCCC#CCO)=C(C)C1=O` the Potency was inconclusive [inhibitor, partial curve, poor fit]. With `CCOC(=O)Cc1csc(NC(=O)c2csc3c2CCCC3)n1` the Potency was inconclusive [inhibitor, single point]. In the case of `Cc1cc(C)c(/C=C(\C#N)C(N)=S)c(C)c1`, the Potency is reported as inconclusive [inhibitor, partial curve]. In the case of `Cc1cccc(-c2nnc(-c3ccccc3)o2)c1`, the Potency is reported as inconclusive [inhibitor, partial curve, poor fit]. With `COc1ccc2oc(=O)c(C(=O)O)cc2c1` the Potency was inconclusive [inhibitor, partial curve]. For `O=S(=O)(c1ccccc1)N1CCN(c2ncnc3sc(-c4ccccc4)cc23)CC1`, the Potency was inconclusive [inhibitor, partial curve]. For `CCC(=O)N(CCc1ccccc1)Cc1cc2cc3c(cc2[nH]c1=O)OCO3`, the Potency was inconclusive [inhibitor, partial curve]. For `Cc1cc2c(ncn2Cc2ccccc2)c([N+](=O)[O-])c1C`, the Potency was active: 20 µM. `O=C(O)C1C2C=CC(C2)C1C(=O)Nc1ccc(C(=O)N2CCCCC2)c(Cl)c1` (stereo unspecified) was tested, and the Potency was active: 0.447 µM. `COc1cc(NC(=O)c2cccs2)c(C(=O)OCC(=O)NCc2ccco2)cc1OC` was tested, and the Potency was inconclusive [inhibitor, partial curve]. In the case of `Cc1ccc2[nH]cc(C(=O)NCc3cccs3)c(=O)c2c1`, the activity change, negative = inhibition is reported as inactive: -7.93%. `CCC(=O)Nc1c(OC(=O)CC)ccc2c(C)cc(=O)oc12` was tested, and the Potency was inconclusive [inhibitor, partial curve]. With `O=C1C2C(C(=O)N1/N=C/c1cccc([N+](=O)[O-])c1)C1C=CC2C12CC2` (stereo unspecified) the Potency was active: 15.8 µM. `COc1cc(/C=C2\C(=O)ON=C2c2ccccc2)cc(OC)c1OC` was tested, and the Potency was active: 14.1 µM. For `CC(C)(C)C(=O)NC(=S)N1CCCC1`, the activity change, negative = inhibition was inactive: -4.91%. `CCOc1ccc(C(=S)NC2CCCCC2)cc1OC` was tested, and the Potency was active: 20 µM. In the case of `O=C(c1cnn2c(C(F)F)cc(C3CC3)nc12)N1CCc2ccccc2C1`, the Potency is reported as inconclusive [inhibitor, partial curve]. For `CC(NC(=O)Cc1cccs1)c1ccc2c(c1)OCO2` (stereo unspecified), the Potency was inconclusive [inhibitor, partial curve]. In the case of `O=C(CSc1ccc2nnc(-c3cccnc3)n2n1)NCC1CCCO1` (stereo unspecified), the Potency is reported as inconclusive [inhibitor, partial curve]. `COCCNC(=O)C1=C(N)C(C(=O)Nc2ccc(C)c(S(=O)(=O)N3CCCCC3)c2)SC1=Nc1ccc(C)cc1C` (stereo unspecified) was tested, and the Potency was inconclusive [inhibitor, single point]. `COC(=O)c1cc(C)sc1NC(=O)c1cccnc1` was tested, and the activity change, negative = inhibition was inactive: -12.7%. In the case of `CCOC(=O)COc1ccc(Br)cc1C1NC(=O)NC(C)=C1C(=O)NCc1ccccc1` (stereo unspecified), the Potency is reported as inconclusive [inhibitor, single point]. For `COc1cccc(=O)c2c(C)n(-c3cc(C)cc(C)c3)c(C)c12`, the Potency was active: 28.2 µM. With `COc1ccc(NC(=O)N2CCC3(CC2)CCN(C(=O)c2ccco2)CC3)cc1` the activity change, negative = inhibition was inactive: -2.99%. With `COc1ccc(C(C[N+](=O)[O-])n2nc(C)cc2C)cc1` (stereo unspecified) the Potency was active: 31.6 µM. In the case of `COc1ccc(/C=C/C(=O)c2ccc(C)s2)cc1`, the Potency is reported as inconclusive [inhibitor, partial curve, poor fit]. With `Cc1ccc(NC(=O)c2cc(C)n(-c3ccccc3)c2C)cc1` the Potency was active: 20 µM. `CCOC(=O)c1c(NC(=O)COC(=O)c2c(C)noc2C)sc2c1CCC2` was tested, and the Potency was inconclusive [inhibitor, full curve, poor fit]. In the case of `Cc1n[nH]c(=S)n1/N=C/c1ccc(OCc2ccc(Cl)cc2)cc1`, the Potency is reported as active: 7.94 µM. `Cc1nn(-c2ccccc2)c(Cl)c1C(=O)N1CCN(c2ncnc3c2cnn3-c2ccccc2)CC1` was tested, and the Potency was inconclusive [inhibitor, single point]. `O=C(NC1CC1)c1ccc(-c2nc3ccccc3s2)s1` was tested, and the Potency was inconclusive [inhibitor, partial curve]. For `CCc1ccc(S(=O)(=O)NCc2csc(-c3cccnc3)n2)s1`, the Potency was inconclusive [inhibitor, partial curve]. `Cc1ccc(C2=N/C(=C\c3cccs3)C(=O)N2Nc2ccccc2)cc1` was tested, and the activity change, negative = inhibition was inactive: -15%. With `CC(c1ccccc1)N1C(=O)C2C3CCC(C3)C2C1=O` (stereo unspecified) the Potency was inconclusive [inhibitor, single point]. In the case of `CC(C)Oc1ccc(C(=O)N/N=C/c2ccc(-c3ccc(S(=O)(=O)Nc4ncccn4)cc3)o2)cc1`, the Potency is reported as inconclusive [inhibitor, partial curve]. `CCn1c(=O)cc(OCC(=O)N2CCN(c3cccc(C(F)(F)F)c3)CC2)c2ccccc21` was tested, and the Potency was inconclusive [inhibitor, single point]. For `Oc1ccc(Nc2nc(-c3ccc(O)cc3)cs2)cc1`, the Potency was inconclusive [inhibitor, partial curve].
